Laboratory results reported in the supplement of paper PMC12230231.

tested on: SIVsab (simian immunodeficiency virus of sabaeus monkeys), single-cycle GFP reporter, in CRFK cells; assay: enrichment among uninfected cells over input (fold); higher = stronger restriction; details: library: human / rhesus combinations
Procedure: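 Pools of CRFK cells expressing variants of the TRIM5α v1 loop were challenged with the single-cycle reporter, sorted by GFP and sequenced; mean of two replicates.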

Sequence | enrichment
MASGILVNVKEEVTCPICLELLTQPLSLDCGHSFCQACLTANHKKSMLDKGESSCPVCRISYQPENIRPNRHVANIVEKLREVKLSPEGQKVDHCARHGEKLLLFCQEDGKVICWLCERSQEHRGHHTFLTEEVAREYQVKLQAALEMLRQKQQEAEELEADIREEKASWKTQIQYDKTNVLADFEQLRDILDWEESNELQNLEKEEEDILKSLTNSETEMVQQTQSLRELISDLEHRLQGSVMELLQGVDGVIKRTENVTLKKPETFPKNQRRVFRAPDLKGMLEVFRELTDVRRYWVDVTVAPNNISCAVISEDKRQVSSPKPQIIYQAPGTRFPSLVNFNYCTGILGSQSITSGKHYWEVDVSKKTAWILGVCAGFQPDAMCNIEKNENYQPKYGYWVIGLEEGVKCSAFQDSSFHTPSVPFIVPLSVIICPDRVGVFLDYEACTVSFFNITNHGFLIYKFSHCSFSQPVFPYLNPRKCGVPMTLCSPSS [human TRIM5α, 330-340 = QAPGTRFPSLV] | 0.00362 ± 0.0018
MASGILVNVKEEVTCPICLELLTQPLSLDCGHSFCQACLTANHKKSMLDKGESSCPVCRISYQPENIRPNRHVANIVEKLREVKLSPEGQKVDHCARHGEKLLLFCQEDGKVICWLCERSQEHRGHHTFLTEEVAREYQVKLQAALEMLRQKQQEAEELEADIREEKASWKTQIQYDKTNVLADFEQLRDILDWEESNELQNLEKEEEDILKSLTNSETEMVQQTQSLRELISDLEHRLQGSVMELLQGVDGVIKRTENVTLKKPETFPKNQRRVFRAPDLKGMLEVFRELTDVRRYWVDVTVAPNNISCAVISEDKRQVSSPKPQIIYQAPGTRYTFQTLVNFNYCTGILGSQSITSGKHYWEVDVSKKTAWILGVCAGFQPDAMCNIEKNENYQPKYGYWVIGLEEGVKCSAFQDSSFHTPSVPFIVPLSVIICPDRVGVFLDYEACTVSFFNITNHGFLIYKFSHCSFSQPVFPYLNPRKCGVPMTLCSPSS [human TRIM5α, 330-340 = QAPGTRYTFQTLV] | 0.111 ± 0.055
MASGILVNVKEEVTCPICLELLTQPLSLDCGHSFCQACLTANHKKSMLDKGESSCPVCRISYQPENIRPNRHVANIVEKLREVKLSPEGQKVDHCARHGEKLLLFCQEDGKVICWLCERSQEHRGHHTFLTEEVAREYQVKLQAALEMLRQKQQEAEELEADIREEKASWKTQIQYDKTNVLADFEQLRDILDWEESNELQNLEKEEEDILKSLTNSETEMVQQTQSLRELISDLEHRLQGSVMELLQGVDGVIKRTENVTLKKPETFPKNQRRVFRAPDLKGMLEVFRELTDVRRYWVDVTVAPNNISCAVISEDKRQVSSPKPQIIYQARGTLYTFQSFVNFNYCTGILGSQSITSGKHYWEVDVSKKTAWILGVCAGFQPDAMCNIEKNENYQPKYGYWVIGLEEGVKCSAFQDSSFHTPSVPFIVPLSVIICPDRVGVFLDYEACTVSFFNITNHGFLIYKFSHCSFSQPVFPYLNPRKCGVPMTLCSPSS [human TRIM5α, 330-340 = QARGTLYTFQSFV] | 0.213 ± 0.028
MASGILVNVKEEVTCPICLELLTQPLSLDCGHSFCQACLTANHKKSMLDKGESSCPVCRISYQPENIRPNRHVANIVEKLREVKLSPEGQKVDHCARHGEKLLLFCQEDGKVICWLCERSQEHRGHHTFLTEEVAREYQVKLQAALEMLRQKQQEAEELEADIREEKASWKTQIQYDKTNVLADFEQLRDILDWEESNELQNLEKEEEDILKSLTNSETEMVQQTQSLRELISDLEHRLQGSVMELLQGVDGVIKRTENVTLKKPETFPKNQRRVFRAPDLKGMLEVFRELTDVRRYWVDVTVAPNNISCAVISEDKRQVSSPKPQIIYGAPGTLYTFQSLVNFNYCTGILGSQSITSGKHYWEVDVSKKTAWILGVCAGFQPDAMCNIEKNENYQPKYGYWVIGLEEGVKCSAFQDSSFHTPSVPFIVPLSVIICPDRVGVFLDYEACTVSFFNITNHGFLIYKFSHCSFSQPVFPYLNPRKCGVPMTLCSPSS [human TRIM5α, 330-340 = GAPGTLYTFQSLV] | 0.231 ± 0.11
MASGILVNVKEEVTCPICLELLTQPLSLDCGHSFCQACLTANHKKSMLDKGESSCPVCRISYQPENIRPNRHVANIVEKLREVKLSPEGQKVDHCARHGEKLLLFCQEDGKVICWLCERSQEHRGHHTFLTEEVAREYQVKLQAALEMLRQKQQEAEELEADIREEKASWKTQIQYDKTNVLADFEQLRDILDWEESNELQNLEKEEEDILKSLTNSETEMVQQTQSLRELISDLEHRLQGSVMELLQGVDGVIKRTENVTLKKPETFPKNQRRVFRAPDLKGMLEVFRELTDVRRYWVDVTVAPNNISCAVISEDKRQVSSPKPQIIYGAPGTLYTFPSFVNFNYCTGILGSQSITSGKHYWEVDVSKKTAWILGVCAGFQPDAMCNIEKNENYQPKYGYWVIGLEEGVKCSAFQDSSFHTPSVPFIVPLSVIICPDRVGVFLDYEACTVSFFNITNHGFLIYKFSHCSFSQPVFPYLNPRKCGVPMTLCSPSS [human TRIM5α, 330-340 = GAPGTLYTFPSFV] | 0.194 ± 0.053

same assay, conditions: library: insertions and deletions

Sequence | enrichment
MASGILVNVKEEVTCPICLELLTQPLSLDCGHSFCQACLTANHKKSMLDKGESSCPVCRISYQPENIRPNRHVANIVEKLREVKLSPEGQKVDHCARHGEKLLLFCQEDGKVICWLCERSQEHRGHHTFLTEEVAREYQVKLQAALEMLRQKQQEAEELEADIREEKASWKTQIQYDKTNVLADFEQLRDILDWEESNELQNLEKEEEDILKSLTNSETEMVQQTQSLRELISDLEHRLQGSVMELLQGVDGVIKRTENVTLKKPETFPKNQRRVFRAPDLKGMLEVFRELTDVRRYWVDVTVAPNNISCAVISEDKRQVSSPGARGTRYQTFVNFNYCTGILGSQSITSGKHYWEVDVSKKTAWILGVCAGFQPDAMCNIEKNENYQPKYGYWVIGLEEGVKCSAFQDSSFHTPSVPFIVPLSVIICPDRVGVFLDYEACTVSFFNITNHGFLIYKFSHCSFSQPVFPYLNPRKCGVPMTLCSPSS [human TRIM5α, 6-codon deletion at 324] | 1.23 ± 0.25
MASGILVNVKEEVTCPICLELLTQPLSLDCGHSFCQACLTANHKKSMLDKGESSCPVCRISYQPENIRPNRHVANIVEKLREVKLSPEGQKVDHCARHGEKLLLFCQEDGKVICWLCERSQEHRGHHTFLTEEVAREYQVKLQAALEMLRQKQQEAEELEADIREEKASWKTQIQYDKTNVLADFEQLRDILDWEESNELQNLEKEEEDILKSLTNSETEMVQQTQSLRELISDLEHRLQGSVMELLQGVDGVIKRTENVTLKKPETFPKNQRRVFRAPDLKGMLEVFRELTDVRRYWVDVTVAPNNISCAVISEDKRQVSSPKPQIIYGARGTRYQTFVNFNYCTGILGSNYCTGILGSQSITSGKHYWEVDVSKKTAWILGVCAGFQPDAMCNIEKNENYQPKYGYWVIGLEEGVKCSAFQDSSFHTPSVPFIVPLSVIICPDRVGVFLDYEACTVSFFNITNHGFLIYKFSHCSFSQPVFPYLNPRKCGVPMTLCSPSS [human TRIM5α, 9-codon duplication at 343] | 0.866 ± 0.048
MASGILVNVKEEVTCPICLELLTQPLSLDCGHSFCQACLTANHKKSMLDKGESSCPVCRISYQPENIRPNRHVANIVEKLREVKLSPEGQKVDHCARHGEKLLLFCQEDGKVICWLCERSQEHRGHHTFLTEEVAREYQVKLQAALEMLRQKQQEAEELEADIREEKASWKTQIQYDKTNVLADFEQLRDILDWEESNELQNLEKEEEDILKSLTNSETEMVQQTQSLRELISDLEHRLQGSVMELLQGVDGVIKRTENVTLKKPETFPKNQRRVFRAPDLKGMLEVFRELTDVRRYWVDVTVAPNNISCAVISEDKRQVSSPKPQIIYGARYQTFVNFNYCTGILGSQSITSGKHYWEVDVSKKTAWILGVCAGFQPDAMCNIEKNENYQPKYGYWVIGLEEGVKCSAFQDSSFHTPSVPFIVPLSVIICPDRVGVFLDYEACTVSFFNITNHGFLIYKFSHCSFSQPVFPYLNPRKCGVPMTLCSPSS [human TRIM5α, 3-codon deletion at 333] | 0.543 ± 0.45
MASGILVNVKEEVTCPICLELLTQPLSLDCGHSFCQACLTANHKKSMLDKGESSCPVCRISYQPENIRPNRHVANIVEKLREVKLSPEGQKVDHCARHGEKLLLFCQEDGKVICWLCERSQEHRGHHTFLTEEVAREYQVKLQAALEMLRQKQQEAEELEADIREEKASWKTQIQYDKTNVLADFEQLRDILDWEESNELQNLEKEEEDILKSLTNSETEMVQQTQSLRELISDLEHRLQGSVMELLQGVDGVIKRTENVTLKKPETFPKNQRRVFRAPDLKGMLEVFRELTDVRRYWVDVTVAPNNISCAVISEDKRQVSSPKPQIIYGARNFNYCTGILGSQSITSGKHYWEVDVSKKTAWILGVCAGFQPDAMCNIEKNENYQPKYGYWVIGLEEGVKCSAFQDSSFHTPSVPFIVPLSVIICPDRVGVFLDYEACTVSFFNITNHGFLIYKFSHCSFSQPVFPYLNPRKCGVPMTLCSPSS [human TRIM5α, 8-codon deletion at 333] | 2.08 ± 1.3
MASGILVNVKEEVTCPICLELLTQPLSLDCGHSFCQACLTANHKKSMLDKGESSCPVCRISYQPENIRPNRHVANIVEKLREVKLSPEGQKVDHCARHGEKLLLFCQEDGKVICWLCERSQEHRGHHTFLTEEVAREYQVKLQAALEMLRQKQQEAEELEADIREEKASWKTQIQYDKTNVLADFEQLRDILDWEESNELQNLEKEEEDILKSLTNSETEMVQQTQSLRELISDLEHRLQGSVMELLQGVDGVIKRTENVTLKKPETFPKNQRRVFRAPDLKGMLEVFRELTDVRRYWVDVTVAPNNISCAVISEDKRQVSSPKPQIIYGARGTRYQTFVRYQTFVNFNYCTGILGSQSITSGKHYWEVDVSKKTAWILGVCAGFQPDAMCNIEKNENYQPKYGYWVIGLEEGVKCSAFQDSSFHTPSVPFIVPLSVIICPDRVGVFLDYEACTVSFFNITNHGFLIYKFSHCSFSQPVFPYLNPRKCGVPMTLCSPSS [human TRIM5α, 6-codon duplication at 335] | 0.176 ± 0.16
MASGILVNVKEEVTCPICLELLTQPLSLDCGHSFCQACLTANHKKSMLDKGESSCPVCRISYQPENIRPNRHVANIVEKLREVKLSPEGQKVDHCARHGEKLLLFCQEDGKVICWLCERSQEHRGHHTFLTEEVAREYQVKLQAALEMLRQKQQEAEELEADIREEKASWKTQIQYDKTNVLADFEQLRDILDWEESNELQNLEKEEEDILKSLTNSETEMVQQTQSLRELISDLEHRLQGSVMELLQGVDGVIKRTENVTLKKPETFPKNQRRVFRAPDLKGMLEVFRELTDVRRYWVDVTVAPNNISCAVISEDKRQVSSPKPQIIYGARGTRYVNFNYCTGILGSQSITSGKHYWEVDVSKKTAWILGVCAGFQPDAMCNIEKNENYQPKYGYWVIGLEEGVKCSAFQDSSFHTPSVPFIVPLSVIICPDRVGVFLDYEACTVSFFNITNHGFLIYKFSHCSFSQPVFPYLNPRKCGVPMTLCSPSS [human TRIM5α, 3-codon deletion at 337] | 0.797 ± 0.11
MASGILVNVKEEVTCPICLELLTQPLSLDCGHSFCQACLTANHKKSMLDKGESSCPVCRISYQPENIRPNRHVANIVEKLREVKLSPEGQKVDHCARHGEKLLLFCQEDGKVICWLCERSQEHRGHHTFLTEEVAREYQVKLQAALEMLRQKQQEAEELEADIREEKASWKTQIQYDKTNVLADFEQLRDILDWEESNELQNLEKEEEDILKSLTNSETEMVQQTQSLRELISDLEHRLQGSVMELLQGVDGVIKRTENVTLKKPETFPKNQRRVFRAPDLKGMLEVFRELTDVRRYWVDVTVAPNNISCAVISEDKRQVSSPKPQIIYGARARGTRYQTFVNFNYCTGILGSQSITSGKHYWEVDVSKKTAWILGVCAGFQPDAMCNIEKNENYQPKYGYWVIGLEEGVKCSAFQDSSFHTPSVPFIVPLSVIICPDRVGVFLDYEACTVSFFNITNHGFLIYKFSHCSFSQPVFPYLNPRKCGVPMTLCSPSS [human TRIM5α, 2-codon duplication at 331] | 0.636 ± 0.25

± gives the standard deviation of the averaged measurements. Restriction of a single-cycle SIVsab GFP reporter by TRIM5α v1-loop variants in CRFK cells. Human variants: read share among cells still uninfected after two challenges over input, higher = gained restriction. Rhesus variants: share among infected cells over input, higher = lost restriction. Reporter dose not given per row. No active / inactive call per row; the paper calls a change when both replicates lie above its controls (mean + 2 SD of stop or wild-type variants, or the top frameshift score). Residues outside the varied loop are taken from Swiss-Prot. The paper reads the human single-substitution scores as noise; they and the rhesus combinations repeat poorly (rank correlation 0.3 to 0.4), indel scores repeat only for the top variants, rhesus substitutions well (0.9).
